Laboratory results as given in the supplement of paper PMC4967469.
A lower IC50 marks a more sensitive line; a fit beyond the top or the lowest dose is shown as a bound at that dose. AUC sums up the same curve from the lowest dose to the 256-fold higher top dose: 1 means no effect, lower means more sensitive. For part of these data: A top dose marked as inferred was derived from the fitted curves, not read from the paper.

Assays:
Assay in all cases: Viability of human cancer cell lines after 72 h of drug (GDSC screen)
[1] = compound: Cc1cccc(Nc2nc(-c3ccncc3)cs2)c1 [STF-62247]; settings: top dose 10.24 µM; top dose inferred
Method: (§1)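 Human cancer cell lines in 384-well plates, medium with 10% serum, drug for 72 h over a 256-fold dose range (nine 2-fold or five 4-fold steps up to the top dose). Adherent lines were fixed and stained with the nucleic acid dye Syto60, suspension lines read with resazurin; signal relative to control wells, capped at 0 and 100%. One two-parameter sigmoid per drug and line, fitted in a mixed model over all curves with the slope shared within a line.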

[2] = compound: CC(C)C[C@H](NC(=O)[C@H](Cc1ccccc1)NC(=O)c1cnccn1)B(O)O [Bortezomib]; settings: top dose 0.02 µM
Method: as §1

[3] = compound: COCC(=O)NC/C=C/c1ccc2ncnc(Nc3ccc(Oc4ccc(C)nc4)c(C)c3)c2c1 [CP724714]; settings: top dose 10.24 µM; top dose inferred
Method: as §1

[4] = compound: CC(=O)O[C@H]1C(=O)[C@@]2(C)[C@H]([C@H](OC(=O)c3ccccc3)[C@]3(O)C[C@H](OC(=O)[C@H](O)[C@@H](NC(=O)c4ccccc4)c4ccccc4)C(C)=C1C3(C)C)[C@]1(OC(C)=O)CO[C@@H]1C[C@@H]2O [Paclitaxel]; settings: top dose 0.1024 µM
Method: as §1

[5] = compound: Cc1cnc(CNC(=O)c2c(=O)c3ccc(N4CCCN(C)CC4)nc3n3c2sc2ccccc23)cn1 [CX-5461]; settings: top dose 10.24 µM; top dose inferred
Method: as §1

[6] = compound: COC1=CC(c2cc3ccccc3[nH]2)=N/C1=C\c1[nH]c(C)cc1C [Obatoclax mesylate]; settings: top dose 16 µM
Method: as §1

Row | Cell Line | AUC [1] | IC50 [1] | AUC [2] | IC50 [2] | AUC [3] | IC50 [3] | AUC [4] | IC50 [4] | AUC [5] | IC50 [5] | AUC [6] | IC50 [6]
1 | C2BBe1 (large intestine, adherent) | 0.978 | > 10200 nM | 0.592 | 2.31 nM | 0.979 | > 10200 nM | 0.895 | > 102 nM | 0.896 | > 10200 nM | 0.517 | 1120 nM
2 | CA46 (Burkitt lymphoma, suspension) | 0.975 | > 10200 nM | 0.925 | > 20 nM | 0.964 | > 10200 nM | 0.906 | > 102 nM | 0.55 | 886 nM | 0.176 | 95.8 nM
3 | CAS-1 (glioma, adherent) | 0.976 | > 10200 nM | 0.545 | 1.73 nM | 0.949 | > 10200 nM | 0.862 | > 102 nM | 0.982 | > 10200 nM | 0.509 | 1070 nM
4 | CESS (acute myeloid leukaemia, suspension) | 0.969 | > 10200 nM | 0.369 | 0.577 nM | 0.967 | > 10200 nM | 0.567 | 9.47 nM | 0.22 | 114 nM | 0.153 | 107 nM
5 | CGTH-W-1 (thyroid, adherent) | 0.984 | > 10200 nM | 0.666 | 3.6 nM | 0.97 | > 10200 nM | 0.801 | 49.5 nM | 0.982 | > 10200 nM | 0.373 | 447 nM
6 | CHP-126 (neuroblastoma, suspension) | 0.943 | > 10200 nM | 0.737 | 6.09 nM | 0.978 | > 10200 nM | 0.956 | > 102 nM | 0.435 | 424 nM | 0.528 | 1190 nM
7 | CL-11 (large intestine, adherent) | 0.987 | > 10200 nM | 0.705 | 5.12 nM | 0.978 | > 10200 nM | 0.979 | > 102 nM | 0.984 | > 10200 nM | 0.804 | 9250 nM
8 | CMK (acute myeloid leukaemia, suspension) | 0.91 | > 10200 nM | 0.503 | 1.27 nM | 0.981 | > 10200 nM | 0.762 | 31.5 nM | 0.386 | 327 nM | 0.094 | 62.8 nM
9 | COLO-320-HSR (large intestine, suspension) | 0.962 | > 10200 nM | 0.681 | 3.71 nM | 0.972 | > 10200 nM | 0.938 | > 102 nM | 0.971 | > 10200 nM | 0.247 | 211 nM
10 | COLO-684 (endometrium, suspension) | 0.984 | > 10200 nM | 0.669 | 3.93 nM | 0.966 | > 10200 nM | 0.729 | 31.5 nM | 0.794 | 5390 nM | 0.342 | 343 nM
11 | COLO-800 (melanoma, adherent) | 0.981 | > 10200 nM | 0.848 | 14.3 nM | 0.96 | > 10200 nM | 0.985 | > 102 nM | 0.862 | 8320 nM | 0.261 | 213 nM
12 | COLO-824 (breast, adherent) | 0.964 | > 10200 nM | 0.981 | > 20 nM | 0.954 | > 10200 nM | 0.966 | > 102 nM | 0.931 | > 10200 nM | 0.377 | 454 nM
13 | COLO-829 (melanoma, adherent) | 0.979 | > 10200 nM | 0.438 | 0.779 nM | 0.972 | > 10200 nM | 0.957 | > 102 nM | 0.951 | > 10200 nM | 0.478 | 849 nM
14 | EHEB (lymphoid neoplasm, suspension) |  |  | 0.581 | 2.31 nM |  |  | 0.885 | > 102 nM |  |  | 0.523 | 1180 nM
15 | IM-9 (myeloma, suspension) |  |  | 0.87 | 14.5 nM |  |  | 0.992 | > 102 nM |  |  | 0.297 | 296 nM
16 | KARPAS-231 (B-cell leukaemia, suspension) |  |  | 0.448 | 0.931 nM | 0.975 | > 10200 nM | 0.498 | 6.33 nM |  |  | 0.116 | 95.1 nM
17 | NB17 (neuroblastoma, adherent) | 0.82 | 7060 nM | 0.565 | 1.93 nM | 0.92 | > 10200 nM | 0.774 | 46.2 nM | 0.224 | 86.8 nM |  | 
18 | NCI-H1963 (small cell lung carcinoma, suspension) | 0.977 | > 10200 nM | 0.636 | 2.81 nM |  |  | 0.709 | 22.8 nM | 0.847 | 6110 nM | 0.492 | 956 nM
19 | NK-92MI (lymphoid neoplasm, suspension) |  |  | 0.419 | 0.762 nM |  |  | 0.969 | > 102 nM |  |  | 0.108 | < 62.5 nM
20 | P31-FUJ (acute myeloid leukaemia, suspension) | 0.957 | > 10200 nM | 0.993 | > 20 nM | 0.989 | > 10200 nM | 0.996 | > 102 nM | 0.99 | > 10200 nM |  | 
21 | RL95-2 (endometrium, adherent) | 0.978 | > 10200 nM | 0.662 | 3.5 nM | 0.981 | > 10200 nM | 0.379 | 2.99 nM | 0.856 | 8100 nM |  | 
22 | TALL-1 (T-cell lymphoblastic leukaemia, suspension) | 0.965 | > 10200 nM | 0.915 | > 20 nM | 0.981 | > 10200 nM | 0.809 |  | 0.967 | > 10200 nM |  | 
23 | TE-441-T (rhabdomyosarcoma, adherent) |  |  | 0.924 | > 20 nM | 0.986 | > 10200 nM | 0.94 | > 102 nM |  |  | 0.567 | 1510 nM
24 | TUR (B-cell lymphoma, suspension) | 0.888 | 9990 nM | 0.93 | > 20 nM | 0.949 | > 10200 nM | 0.988 | > 102 nM | 0.89 | > 10200 nM |  | 
